Here are results for 85 compounds from ChEMBL document CHEMBL4888484, “Replenishing the malaria drug discovery pipeline: Screening and hit evaluation of the MMV Hit Generation Library 1 (HGL1) against asexual blood stage Plasmodium falciparum ,using a nano luciferase reporter read-out” (2022).

Each structure is given as a SMILES string. Out of some 150,000 compounds screened, about 540 (0.36%) showed an effect of 50% or more. Some of the results follow.

The subject of the assay is Plasmodium falciparum. The experiment in a line: Primary screen in NF54 nanoGlo assay, in single point, at 2uM, 72h; a lower Z score goes with more inhibition. It is filed as functional, Erythrocyte. The conditions noted are these: timepoint 72 hour.
Turning to `O=C(Nc1ccc(-n2cccc(C(=O)NCCCN3CCOCC3)c2=O)cc1)c1ccc(F)cc1`, the “% Inhibition” value was -8% and the Z score is on record as 1.11.
Take `CCN(CC)c1ccc(C(=O)N2CCC(O)(c3nnn[nH]3)CC2)cc1`: the “% Inhibition” value was -17% and the Z score was 1.94.
Take `C=CCNc1nc(CC2CC2)nc2c1CCNCC2`: the “% Inhibition” value is recorded as -1% and the Z score is on record as 0.17.
On to `CC(O)CC1COCCN1C(=O)NC(c1ccccc1)C1CC1C` (stereo not given), for which the “% Inhibition” value was -2% and the Z score was 0.2.
As for `CC(C(=O)O)N(C)CC(O)c1ccccc1Br` (stereo not given), the “% Inhibition” value is -3% and the Z score was found to be 0.61.
For `O=C(c1noc2c1CCCC2)N1CCn2c(cc3cc(Cl)ccc32)C1`, in that order: 0% and 0.07.
`Cc1cccc2[nH]c(COCC(=O)NC[C@H]3CCCN(C)C3)nc12`: the “% Inhibition” value worked out at 14% and the Z score is on record as -1.8.
In the case of `CCOc1ccc(C(=O)N(CC(C)C)CC(C)C)cc1OCC`, the “% Inhibition” value is listed as -12% and the Z score is reported as 1.43.
In the case of `C[C@@](CO)(NCCC(=O)N1CCc2ccccc2C1)c1ccccc1`, the “% Inhibition” value stood at 2% and the Z score is on record as -0.27.
For `CS(=O)(=O)c1ccc(OC[C@@]2(CNC(=O)C3CCCC3)C[C@@H](O)[C@@H](O)C2)cc1`, in that order: 8% and -1.22.
Turning to `COCc1nc(NC(=O)COc2cccc3c2ccn3C(C)C)n[nH]1`, the “% Inhibition” value is -7% and the Z score worked out at 0.93.
As to `Cc1ncc(C(=O)NCc2nonc2C)cn1`, the “% Inhibition” value was -11% and the Z score is 1.05.
Consider `O=C(O)c1cc(O)n2nc3cccc(F)c3c2n1`, for which the “% Inhibition” value is given as 27% and the Z score is -3.46.
Take `CC(C)c1ccc(N2CCn3nc(CNC(=O)C4CCCC4)cc3C2)nn1`: the “% Inhibition” value is listed as -2% and the Z score came to 0.21.
`CC(C)Cc1nc(C#N)c(-n2cccn2)o1`: the “% Inhibition” value is reported as -8% and the Z score was found to be 0.89.
As for `O=C(c1csc(Nc2ncccn2)n1)N1CCc2ccccc2C1`, the “% Inhibition” value is on record as -22% and the Z score was 4.19.
Regarding `O=C(N[C@H]1CC[C@H](Oc2ncc(F)cn2)CC1)[C@@H]1COc2ccccc2O1`, the “% Inhibition” value is reported as -7% and the Z score is listed as 1.18.
As to `CCC(CC)N(Cc1ccc2c(c1)OCO2)C(=O)Cc1cccnc1`, the “% Inhibition” value was 23% and the Z score was -2.95.
`N#Cc1c(-c2cccc(Cn3cccn3)c2)cc(C2CCC2)nc1N`: the “% Inhibition” value was 11% and the Z score is on record as -1.51.
On to `O=C(CCCN1C(=O)CNC1=O)NCCCOc1ccc(F)cc1`, for which the “% Inhibition” value is recorded as 0% and the Z score is on record as 0.
Take `Cc1cc(NC(=O)c2cc(-c3ccccn3)nc3c(Cl)cccc23)no1`: the “% Inhibition” value is -1% and the Z score is listed as 0.16.
In the case of `CNC(=NCCOc1ccc(Br)cc1)NC`, the “% Inhibition” value is reported as -1% and the Z score was 0.19.
Regarding `CC(C)c1ccc(N2C(=O)CN(C3CCCCCC3)C3CS(=O)(=O)CC32)cc1` (stereo not given), the “% Inhibition” value was 5% and the Z score was -0.67.
As for `Cc1ncc(C(=O)N2CCN(c3ccc(Cl)c(Cl)c3)CC2)c(C)n1`, the “% Inhibition” value was determined as 3% and the Z score is given as -0.67.
On to `CC1CN(c2ccnc(C#N)n2)CC(C2CC2)O1` (stereo not given), for which the “% Inhibition” value is given as -9% and the Z score worked out at 0.76.
Regarding `Cc1nc(CC(=O)N[C@H]2CCOC[C@@H]2Oc2ccc(C#N)cc2)cs1`, the “% Inhibition” value was -7% and the Z score came to 0.8.
`COc1ccc(C)cc1NC(=O)c1ccc(N2CCOCC2)nn1`: the “% Inhibition” value is listed as -6% and the Z score was 0.83.
Take `O=C(O)[C@H]1CC(=O)N(CCCCc2ccccn2)C1`: the “% Inhibition” value was -12% and the Z score is reported as 2.17.
As to `CCC(=O)N1CCC([C@H](NC(=O)c2ccccc2)C(=O)N2CCCC2)CC1`, the “% Inhibition” value is recorded as -14% and the Z score is 2.
Consider `Cc1nc(C)c(CC(=O)N2CC[C@H]2c2cccs2)s1`, for which the “% Inhibition” value is -2% and the Z score came out at 0.2.
Consider `O=C(Nc1nc(C(F)(F)F)c[nH]1)C1CCCC1`, for which the “% Inhibition” value worked out at 2% and the Z score is -0.47.
Regarding `Cn1nc(-c2ccc(Cl)cc2)c2cc(C(=O)N3CCN(C4CCCCC4)CC3)sc21`, the “% Inhibition” value is given as -6% and the Z score was 0.78.
Take `COc1c(C)cnc(CN2CCC(N(C)C(=O)[C@H]3CC(=O)N(C)C3)CC2)c1C`: the “% Inhibition” value is on record as 0% and the Z score is reported as 0.04.
`NC(=O)C1CCN(C(=O)c2nccnc2-c2nc3ccccc3s2)CC1`: the “% Inhibition” value was determined as 1% and the Z score is recorded as -0.08.
For `Cc1cc(N)n(CC(=O)N[C@@H](C)c2ccc3[nH]ccc3c2)n1`, the “% Inhibition” value is -16% and the Z score worked out at 1.87.
The matching figures for `O=C(NCCc1nc(-c2ccccc2)no1)C1CCC1`: -4% and 0.57.
The matching figures for `C[C@@H](C1CC1)n1nccc1NCc1ccc(F)cc1`: 28% and -3.16.
For `COc1ccc(OCc2nc(CCN(C)C(=O)CC3CCCC3)no2)cc1`, in that order: 0% and 0.06.
Consider `CN(C)S(=O)(=O)N[C@H]1CCN(C(=O)CCc2ccc(O)cc2)C[C@@H]1O`, for which the “% Inhibition” value is reported as 5% and the Z score is recorded as -0.86.
As for `c1ccc2c(NC3CC(N4CCCCC4)C3)ncnc2c1` (stereo not given), the “% Inhibition” value is -3% and the Z score is listed as 0.62.
As for `Cc1ccc(C(=O)N(Cc2ccc(-c3cccc(Cl)c3)o2)[C@H]2CCS(=O)(=O)C2)cc1`, the “% Inhibition” value is -4% and the Z score is 0.57.
Turning to `Cc1cccc(C)c1CS(=O)(=O)NC(=O)[C@H]1CCC(C)(C)C1`, the “% Inhibition” value is reported as -15% and the Z score is on record as 1.48.
`Cc1cccc(Cn2cnc3c2c(=O)n(C[C@H]2CCCO2)c(=O)n3-c2ccccc2)c1`: the “% Inhibition” value is -3% and the Z score is listed as 0.45.
Regarding `CNC(=O)c1cc(N(C)S(=O)(=O)c2cc(C)sc2C)ccn1`, the “% Inhibition” value is given as -7% and the Z score is recorded as 1.
For `Cc1cccc(CN2CCN3CCN(C(=O)NCc4ccco4)CC[C@H]3C2=O)c1`, the “% Inhibition” value was -17% and the Z score is listed as 2.34.
As for `Cc1csc(N2CCC(C(=O)N3CCC[C@](C)(CO)C3)CC2)n1`, the “% Inhibition” value was -8% and the Z score is listed as 0.77.
The matching figures for `Cc1nc(COCc2ccccc2)n(-c2ccccc2)n1`: 18% and -2.25.
`CC1CCN([C@@H]2[C@H](O)[C@H](CO)O[C@@H]2CNC(=O)C2CCCC2)CC1`: the “% Inhibition” value is listed as 16% and the Z score is -1.87.
The matching figures for `Cc1ccc(S(=O)(=O)N2CCC3(CC[C@H](CN4CCN(C)CC4)O3)CC2)cc1F`: -8% and 1.03.
Regarding `COc1ccc([C@H]2C[C@H]3CC[C@@H](C2)N3C(=O)CN2CCNC(=O)C2)cc1`, the “% Inhibition” value came out at 0% and the Z score is reported as -0.01.
`COCCNC(=O)[C@@H](C)[C@@H]1CCc2c(C)cc(OCCOC)c(C)c2[C@@H]1O`: the “% Inhibition” value is recorded as 13% and the Z score was -1.47.
Consider `COc1ccccc1CC(=O)N1CC(OC[C@H]2CCOC2)C1`, for which the “% Inhibition” value was determined as 7% and the Z score is -0.94.
Take `CCOc1ccc(NC(=O)N(Cc2c(C)nn(-c3cccc(F)c3)c2N2CCN(C(C)C)CC2)C(C)C)cc1`: the “% Inhibition” value was -10% and the Z score turned out to be 1.45.
For `OC1(CNc2ccc3cc(Br)ccc3n2)CCOCC1`, the “% Inhibition” value is given as 4% and the Z score is -0.38.
Regarding `CC[C@H]1COCCN1C(=O)CN1CCCCCCC1`, the “% Inhibition” value is -18% and the Z score amounted to 3.56.
Regarding `Cc1nc(C(C)C)sc1[C@H](C)OC(=O)c1cc(C(N)=O)cn1C`, the “% Inhibition” value stood at 8% and the Z score was -1.1.
With `CCN(CC)C(=O)[C@@H](NC(=O)c1ccccc1)C1CCN(C(=O)c2ccco2)CC1`, the “% Inhibition” value is listed as -8% and the Z score is 1.07.
Consider `Cc1cccc(CN2CCC3(CCC(=O)N(C4CC4)C3)CC2)c1`, for which the “% Inhibition” value is reported as -3% and the Z score was determined as 0.54.
For `CN1C(=O)[C@@H]2CC[C@H]1CN(S(=O)(=O)c1cc(Cl)c(Cl)s1)C2`, the “% Inhibition” value is recorded as -8% and the Z score is given as 1.18.
The matching figures for `CN(CC1=Cc2cc(Cl)cc(Cl)c2OC1)CC(C)(C)S(C)(=O)=O`: -7% and 0.95.
As to `Cc1ccn(CC(=O)NCc2ccc3c(c2)OCO3)c(=O)c1`, the “% Inhibition” value is -7% and the Z score is 0.9.
For `CCCn1c(=O)sc2cc(NS(=O)(=O)c3ccc(C)c(C)c3)ccc21`, the “% Inhibition” value worked out at 2% and the Z score was -0.25.
For `COc1ccccc1C(C)NC(=O)N(C)CC1CCCC1O` (stereo not given), the “% Inhibition” value is 12% and the Z score was -1.29.
On to `O=C(Nc1cc(-c2onc3c2CCCC3)ccc1Cl)C(F)(F)C(F)(F)C(F)(F)F`, for which the “% Inhibition” value is -10% and the Z score stood at 1.19.
For `CC(C)N1C[C@@H](OCc2ccc(F)cc2)CN(C(=O)c2ccccc2N2CCC(=O)NC2=O)CC1=O`, the “% Inhibition” value is listed as 1% and the Z score is -0.15.
Take `O=C(Cn1c2ccccc2c2ncn(Cc3ccccc3)c(=O)c21)Nc1cccc(F)c1`: the “% Inhibition” value is reported as -7% and the Z score is reported as 0.84.
In the case of `CCC(CC)C(=O)NC1CCN(C(C)C)CC1`, the “% Inhibition” value came to 13% and the Z score is listed as -1.61.
Take `O=C([C@@H]1COc2ccccc2C1)N1CCCC1`: the “% Inhibition” value is -4% and the Z score turned out to be 0.63.
In the case of `CCn1nc(C)c(COc2cccc3c2[C@@H](O)CC(C)(C)O3)n1`, the “% Inhibition” value was determined as 5% and the Z score is -0.65.
`Cc1ccccc1CNCCOCCO`: the “% Inhibition” value was determined as 29% and the Z score was -3.23.
Regarding `CN(CCCCC1CCOCC1)C[C@@H]1CCCO1`, the “% Inhibition” value was -1% and the Z score is 0.14.
For the compound `O=C(NCc1cc(N2CCOCC2)ncn1)c1cnn2c1CCCC2`, the “% Inhibition” value is recorded as -13% and the Z score was found to be 1.18.
Turning to `CC[C@H](NC(=O)C(C)(C)NC(=O)Nc1ccccc1)c1nccs1`, the “% Inhibition” value is on record as -7% and the Z score came to 0.97.
Turning to `O=C(Nc1ccccc1)N[C@@H](N1CCOCC1)C(Cl)(Cl)Cl`, the “% Inhibition” value amounted to 5% and the Z score is on record as -0.66.
Turning to `O=C(NCCc1nc(C2CC2)cc(C(F)(F)F)n1)c1ccco1`, the “% Inhibition” value is reported as -15% and the Z score is given as 1.71.
For the compound `Cc1c(Cl)cc2c(c1Cl)CCCN2C(=O)c1ccc[n+]([O-])c1`, the “% Inhibition” value stood at 9% and the Z score was -1.19.
On to `CC(C)OCc1ccccc1NC(=O)N[C@@]1(C)CCOC1`, for which the “% Inhibition” value is listed as -7% and the Z score came to 0.92.
`CN1N=C(C(=O)Nc2ccc(N3CCOCC3)nc2)CCC1=O`: the “% Inhibition” value was -3% and the Z score was 0.37.
In the case of `Cc1ncc(CN(C)C(=O)[C@@H]2CCCN2CC(F)(F)F)s1`, the “% Inhibition” value was found to be 4% and the Z score is reported as -0.35.
For `Cc1nn(C(C)C)c(C)c1CN(C)C(=O)[C@@H]1CCCCO1`, in that order: 2% and -0.32.
`COc1cc(C)ccc1OCCN1CC[C@](C)(O)[C@H](C)C1`: the “% Inhibition” value is given as -3% and the Z score turned out to be 0.51.
Turning to `CC(C)(C)CCC(=O)NCc1cnc2c(c1)CCC2`, the “% Inhibition” value is on record as -2% and the Z score came to 0.39.
For `CN(Cc1nc2cc(Cl)ccc2[nH]1)C(=O)CCc1nnc(C2CCCCC2)o1`, the “% Inhibition” value is listed as -5% and the Z score came out at 0.63.
For `Cc1ccc(CNC(=O)CCNc2c(-c3cccc(F)c3)nc3cnccn23)o1`, in that order: -18% and 2.57.
Take `CN(C)S(=O)(=O)N1Cc2ccccc2C1`: the “% Inhibition” value is -18% and the Z score was determined as 2.3.
